{"source": "paper PMC4336329", "about": "(PLoS ONE, 2015)", "note": "About 2,200 (0.71%) of roughly 310,000 compounds showed an effect of 50% or more. Effects have a minus sign here. Some of the results follow.", "data": [{"biological_target": "human ether-à-go-go-related gene (hERG) potassium channel (human, UniProt Q12809)", "sequence (Q12809 whole entry, looked up)": "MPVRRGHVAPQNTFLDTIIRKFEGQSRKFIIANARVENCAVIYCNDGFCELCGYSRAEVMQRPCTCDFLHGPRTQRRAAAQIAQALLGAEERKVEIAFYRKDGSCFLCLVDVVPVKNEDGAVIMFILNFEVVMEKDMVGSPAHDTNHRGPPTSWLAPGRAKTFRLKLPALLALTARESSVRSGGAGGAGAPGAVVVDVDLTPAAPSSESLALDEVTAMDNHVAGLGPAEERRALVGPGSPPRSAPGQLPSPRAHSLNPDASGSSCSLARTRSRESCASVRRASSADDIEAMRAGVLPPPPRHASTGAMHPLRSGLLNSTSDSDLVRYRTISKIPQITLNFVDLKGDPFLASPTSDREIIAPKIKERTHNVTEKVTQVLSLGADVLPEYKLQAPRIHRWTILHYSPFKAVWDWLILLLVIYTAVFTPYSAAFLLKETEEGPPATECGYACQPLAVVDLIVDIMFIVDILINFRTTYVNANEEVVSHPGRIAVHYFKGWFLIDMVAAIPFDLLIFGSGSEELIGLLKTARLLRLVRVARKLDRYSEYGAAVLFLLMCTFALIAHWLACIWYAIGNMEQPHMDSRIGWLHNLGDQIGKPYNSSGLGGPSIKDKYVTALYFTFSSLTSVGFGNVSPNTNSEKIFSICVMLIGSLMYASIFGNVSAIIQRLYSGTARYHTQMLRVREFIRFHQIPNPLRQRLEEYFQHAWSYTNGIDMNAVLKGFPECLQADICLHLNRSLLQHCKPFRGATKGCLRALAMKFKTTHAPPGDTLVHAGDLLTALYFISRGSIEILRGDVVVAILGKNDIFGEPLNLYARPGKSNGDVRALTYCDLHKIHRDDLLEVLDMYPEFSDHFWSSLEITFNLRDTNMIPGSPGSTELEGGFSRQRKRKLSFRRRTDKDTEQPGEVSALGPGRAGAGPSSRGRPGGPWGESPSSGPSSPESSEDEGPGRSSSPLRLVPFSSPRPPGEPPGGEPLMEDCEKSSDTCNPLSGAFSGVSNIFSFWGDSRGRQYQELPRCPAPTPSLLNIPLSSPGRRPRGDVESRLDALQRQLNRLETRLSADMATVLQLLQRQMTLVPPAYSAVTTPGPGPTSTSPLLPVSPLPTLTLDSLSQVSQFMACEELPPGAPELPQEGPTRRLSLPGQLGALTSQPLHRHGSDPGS", "experiment": "primary screen, population patch clamp on CHO cells stably expressing hERG", "units": {"hERG current change (%, negative = inhibition) at 1uM": "%"}, "values": [{"smiles": "Cc1nn(-c2ccccc2)c(C)c1-c1ccccc1O", "hERG current change (%, negative = inhibition) at 1uM": 12.8}, {"smiles": "COC(=O)c1ccccc1N1C(=O)[C@@H]2C(c3ccc(F)cc3)=NO[C@@H]2C1=O", "hERG current change (%, negative = inhibition) at 1uM": 4.26}, {"smiles": "COc1ccccc1NC(=O)c1ccc(NC(=O)CSc2ncn[nH]2)cc1", "hERG current change (%, negative = inhibition) at 1uM": 20.1}, {"smiles": "COc1ccc(C2C(=O)N(C3CCCCC3)CC(=O)N2Cc2ccco2)cc1", "note": "(stereo not shown)", "hERG current change (%, negative = inhibition) at 1uM": -21.2}, {"smiles": "N#Cc1c(-c2ccc(Cl)cc2)ccn2nc(CCC(=O)O)nc12", "hERG current change (%, negative = inhibition) at 1uM": 16.1}, {"smiles": "CCCCc1ccc(/C(C)=N/NC(=O)C2CCCC2)cc1", "hERG current change (%, negative = inhibition) at 1uM": 9.44}, {"smiles": "CCOc1ccc(-n2c(Cc3cc(=O)[nH]c(=O)[nH]3)nnc2SCC(N)=O)cc1", "hERG current change (%, negative = inhibition) at 1uM": -0.0858}, {"smiles": "O=C1NC(=O)N(c2ccccc2)C(=O)/C1=C\\c1ccc([N+](=O)[O-])o1", "hERG current change (%, negative = inhibition) at 1uM": 5.54}, {"smiles": "CCOC(=O)c1c(S(=O)(=O)NCC(=O)N2CCN(c3ccc(OC)cc3)CC2)c(C)n(C)c1C", "hERG current change (%, negative = inhibition) at 1uM": 14.6}, {"smiles": "CCOc1ccc(NC(=O)CN(C)C(=O)c2ccc(NC3CC3)c([N+](=O)[O-])c2)cc1OCC", "hERG current change (%, negative = inhibition) at 1uM": -18.3}, {"smiles": "O=C(CCNS(=O)(=O)c1cccc2nsnc12)Nc1ccc2c(c1)OCCO2", "hERG current change (%, negative = inhibition) at 1uM": 12}, {"smiles": "CC(C)=CCSc1nnc(CCNC(=O)OC(C)(C)C)o1", "hERG current change (%, negative = inhibition) at 1uM": -33.9}, {"smiles": "Cc1ccc(CSC2=CS(=O)(=O)c3ccccc3N2)cc1", "hERG current change (%, negative = inhibition) at 1uM": 7.13}, {"smiles": "COCCNC(=O)CN(C(=O)Cn1nnc2ccccc21)c1ccc(F)c(Cl)c1", "hERG current change (%, negative = inhibition) at 1uM": 4.93}, {"smiles": "COCCn1c(=O)[nH]c2cc(C(=O)NCCCN3CCN(c4ccc(F)cc4)CC3)ccc2c1=O", "hERG current change (%, negative = inhibition) at 1uM": 14.2}, {"smiles": "CC1CCC(NC(=O)c2ccc(S(C)(=O)=O)cc2)CC1", "note": "(stereo not shown)", "hERG current change (%, negative = inhibition) at 1uM": 6.09}, {"smiles": "CC(C)CNC(=S)NNC(=O)c1ccc(OC(F)F)cc1", "hERG current change (%, negative = inhibition) at 1uM": -10.3}, {"smiles": "O=C(OC(C(=O)Nc1ccc(Cl)cc1C(F)(F)F)c1ccccc1)C1=COCCO1", "note": "(stereo not shown)", "hERG current change (%, negative = inhibition) at 1uM": 4.96}, {"smiles": "COc1ccc(C=O)cc1CSc1ccccn1", "hERG current change (%, negative = inhibition) at 1uM": 10.7}, {"smiles": "CN1CCN(c2ccc([N+](=O)[O-])c(NCC3CCCO3)c2)CC1.Cl", "note": "(stereo not shown)", "hERG current change (%, negative = inhibition) at 1uM": -1.67}, {"smiles": "O=C(COC(=O)C1CCC1)NCc1ccc(Cl)cc1Cl", "hERG current change (%, negative = inhibition) at 1uM": 5.58}, {"smiles": "Clc1ccc(-c2ccnc(Oc3ccc4ccccc4c3)n2)cc1", "hERG current change (%, negative = inhibition) at 1uM": 11.9}, {"smiles": "COC(=O)CCC(=O)NNC(=O)c1ccc(Cl)cc1Cl", "hERG current change (%, negative = inhibition) at 1uM": 14.8}, {"smiles": "C=CCNc1cc(C)oc(=O)c1C(=O)CC", "hERG current change (%, negative = inhibition) at 1uM": 4.45}, {"smiles": "Cc1c(C(O)CN2CCC(C(N)=O)CC2)c2ccccc2n1C", "note": "(stereo not shown)", "hERG current change (%, negative = inhibition) at 1uM": -1.87}, {"smiles": "CCOc1cccc2cc(C(=O)NCc3cccnc3)c(=O)oc12", "hERG current change (%, negative = inhibition) at 1uM": 5.87}, {"smiles": "O=C1NCCCc2c1no[n+]2[O-]", "hERG current change (%, negative = inhibition) at 1uM": 16.8}, {"smiles": "Cn1cccc1Cc1nnc(SCC(=O)Nc2ccc(F)cc2)n1CCc1ccccc1", "hERG current change (%, negative = inhibition) at 1uM": -6.41}, {"smiles": "O=C(Nc1ccc(OC(F)(F)F)cc1)Nc1cccnc1", "hERG current change (%, negative = inhibition) at 1uM": -9.71}, {"smiles": "CC(=O)C1=C(O)CCC1=NCCc1ccccc1", "hERG current change (%, negative = inhibition) at 1uM": 11.9}, {"smiles": "S=C(NCCN1CCOCC1)NC1CCCC1", "hERG current change (%, negative = inhibition) at 1uM": 9.45}, {"smiles": "CCN1CCN(C(=O)COc2ccc(S(=O)(=O)NC(C)C)cc2)CC1", "hERG current change (%, negative = inhibition) at 1uM": 11.9}, {"smiles": "Cc1ccccc1NC(=O)COC(=O)c1cc(S(=O)(=O)N2CCOCC2)ccc1C", "hERG current change (%, negative = inhibition) at 1uM": 8.11}, {"smiles": "C/C(=N\\NC(=O)CSc1nc(C)cc(C)n1)c1ccc([N+](=O)[O-])cc1", "hERG current change (%, negative = inhibition) at 1uM": 6.49}, {"smiles": "O=Cc1ccccc1OCCOc1ccc([N+](=O)[O-])cc1", "hERG current change (%, negative = inhibition) at 1uM": -11.9}, {"smiles": "CCN1CCN(C(=O)CCN2C(=O)c3ccccc3S2(=O)=O)CC1.Cl", "hERG current change (%, negative = inhibition) at 1uM": 10.2}, {"smiles": "CCOC(=O)NN=C1CN(S(=O)(=O)c2ccc(C)cc2)C1", "hERG current change (%, negative = inhibition) at 1uM": 17.2}, {"smiles": "COc1ccccc1Nc1ccncc1[N+](=O)[O-]", "hERG current change (%, negative = inhibition) at 1uM": 14.6}, {"smiles": "CNC(=O)c1ccc(NC(=O)c2cc(S(=O)(=O)N(C)C)ccc2N2CCCC2)cc1", "hERG current change (%, negative = inhibition) at 1uM": 9.45}, {"smiles": "COc1cc(NC(=S)N2CCN(c3ccccn3)CC2)cc(OC)c1", "hERG current change (%, negative = inhibition) at 1uM": 17.7}, {"smiles": "FC(F)(F)c1ccccc1CN1CCC(Cc2ccccc2)CC1", "hERG current change (%, negative = inhibition) at 1uM": 13.1}, {"smiles": "CCOC(=O)c1oc2nc(C(C)C)c3c(c2c1N)CCC3", "hERG current change (%, negative = inhibition) at 1uM": 12.7}, {"smiles": "COc1ccc(NC(=O)c2cc(F)c(F)cc2Cl)cc1Cl", "hERG current change (%, negative = inhibition) at 1uM": 5.67}, {"smiles": "O=C(Nc1ccc2c(c1)CCCN2C(=O)c1cccs1)c1ccccc1", "hERG current change (%, negative = inhibition) at 1uM": 6.36}, {"smiles": "CCS(=O)(=O)Nc1cccc(C2=NN(S(C)(=O)=O)C(c3cccs3)C2)c1", "note": "(stereo not shown)", "hERG current change (%, negative = inhibition) at 1uM": 3.36}, {"smiles": "CC(=O)c1cccc(CN2CCN(CCC(C)C)C(CCO)C2)c1", "note": "(stereo not shown)", "hERG current change (%, negative = inhibition) at 1uM": 0.17}]}]}
